In the supplement of paper PMC11417369:
± gives the standard deviation of the averaged measurements. The list shows a part of the results.

Test system: PfAP2-I AP2 domain 3 (GST-tagged)
Test: gcPBM binding intensity (ln(normalized median fluorescence intensity)); higher = stronger DNA binding
Summary of the method: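 In this array assay, P. falciparum DNA-binding domains with a GST tag, expressed in E. coli, were applied for 1 h to primer-extended double-stranded 36-bp intergenic genomic probes and negative controls on an Agilent 4 × 180k array. Bound protein was visualised with Alexa488 anti-GST antibody at 488 nm. Binding intensity is the highest Masliner-normalised natural-log median intensity across replicate spots of either probe orientation.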

In order of rising “gcPBM binding intensity (ln)” value:
1. AAAATTATATTTTATAGAAATTTAAATAAATATATA [GTGCAC_negctrl_site199]  7.21 ± 0.31
2. TTTTTAAAAATAACAGAAAAGAATTACAGATTTTTT [XGTACX_negctrl_site472]  7.41 ± 0.71
3. AACATAATAAAAATGGATATAATTCAAAGTTTGTAA [TGCATGCA_negctrl_site529]  7.46 ± 0.67
4. ATTCAAAATAATCACAGTACACATGAGATTATCTTT [XGTACX_site2197]  7.51 ± 0.45
5. AAAATATGATATGAAAAATTTGTTATATATACATAA [CACACA_negctrl_site1529]  7.53 ± 0.47
6. AAAAAATTGAAGGAGTGTACATTTATACTTTATTTT [XGTACX_site8623]  7.53 ± 0.64
7. AGAGAGAAAGGTATAACATGCGATAAATTTTAGAAG [TGCATGCA_site37]  7.57 ± 0.61
8. AAATCACTTTTTAAGTGTACTTGGTCTTTCTCATTT [XGTACX_site7221]  7.59 ± 0.69
9. TGTAGAATTTCCTGAACATGCAAATAATTTTCCTTA [TGCATGCA_site881]  7.61 ± 0.54
10. TGTATTAATATGGTAATACACACTAATATACTTTTG [CACACA_site1610]  7.62 ± 0.37
11. CATATTCCAAGAATGTGTACATAATTTTTTTTTTTT [XGTACX_site4310]  7.63 ± 0.21
12. TGTTATTCGACATATACACACAAATAACAATTTAAA [CACACA_site5076]  7.68 ± 0.49
13. TAATTTCTTATGTATTGTACAAATAATATATTATTT [XGTACX_site3066]  7.68 ± 0.42
14. GACATTTGTGAGCTTGAGCCGTCAAACCACTAAATA [CACACA_negctrl_site552]  7.7 ± 0.61
15. ATGTAAATTATTATTCTATTGTTATATACACAATAT [XGTACX_negctrl_site332]  7.73 ± 0.65
16. TTATTGAAAAACATAATATCTAAGAGGGTAATATAT [GTGCAC_negctrl_site599]  7.74 ± 0.64
17. TTCTATAAGTATAAATGTACAAAAAAAACATCATTC [XGTACX_site5450]  7.84 ± 0.58
18. CTCATAATTTCTGAACGTACGTATTTCTCATTTTTA [XGTACX_site7296]  7.86 ± 0.47
19. ATTTTTTTTTAATGCAAAAGGTGATGATCGGTCATA [CACACA_negctrl_site959]  7.86 ± 0.55
20. CACATACATATATACACACACAAAATAATAAAATAA [CACACA_site2308]  7.88 ± 0.17
21. TTTTCTTGATTTTGTAGTACATTTTTACGATATTTT [XGTACX_site63]  7.94 ± 0.55
22. ATATAGTTCGTTTATACACACATGATAAGATATTTA [CACACA_site1947]  8.03 ± 0.54
23. AGGTCTGTTTTATATTGTACATAAAAAGTGCACATG [XGTACX_site4529]  10.4 ± 0.32
24. TAATTATAAATTATAGTGCATAAAATTGTAGCATAA  10.5 ± 0.38
